PMC4336329 (PLoS ONE, 2015)
In all, about 310,000 compounds went through this assay and about 2,200 (0.71%) showed an effect of 50% or more. Effects have a minus sign here. The list shows a part of the results.

target: human ether-à-go-go-related gene (hERG) potassium channel (human, UniProt Q12809); assay: primary screen, population patch clamp on CHO cells stably expressing hERG
Sequence (Q12809 whole entry, looked up): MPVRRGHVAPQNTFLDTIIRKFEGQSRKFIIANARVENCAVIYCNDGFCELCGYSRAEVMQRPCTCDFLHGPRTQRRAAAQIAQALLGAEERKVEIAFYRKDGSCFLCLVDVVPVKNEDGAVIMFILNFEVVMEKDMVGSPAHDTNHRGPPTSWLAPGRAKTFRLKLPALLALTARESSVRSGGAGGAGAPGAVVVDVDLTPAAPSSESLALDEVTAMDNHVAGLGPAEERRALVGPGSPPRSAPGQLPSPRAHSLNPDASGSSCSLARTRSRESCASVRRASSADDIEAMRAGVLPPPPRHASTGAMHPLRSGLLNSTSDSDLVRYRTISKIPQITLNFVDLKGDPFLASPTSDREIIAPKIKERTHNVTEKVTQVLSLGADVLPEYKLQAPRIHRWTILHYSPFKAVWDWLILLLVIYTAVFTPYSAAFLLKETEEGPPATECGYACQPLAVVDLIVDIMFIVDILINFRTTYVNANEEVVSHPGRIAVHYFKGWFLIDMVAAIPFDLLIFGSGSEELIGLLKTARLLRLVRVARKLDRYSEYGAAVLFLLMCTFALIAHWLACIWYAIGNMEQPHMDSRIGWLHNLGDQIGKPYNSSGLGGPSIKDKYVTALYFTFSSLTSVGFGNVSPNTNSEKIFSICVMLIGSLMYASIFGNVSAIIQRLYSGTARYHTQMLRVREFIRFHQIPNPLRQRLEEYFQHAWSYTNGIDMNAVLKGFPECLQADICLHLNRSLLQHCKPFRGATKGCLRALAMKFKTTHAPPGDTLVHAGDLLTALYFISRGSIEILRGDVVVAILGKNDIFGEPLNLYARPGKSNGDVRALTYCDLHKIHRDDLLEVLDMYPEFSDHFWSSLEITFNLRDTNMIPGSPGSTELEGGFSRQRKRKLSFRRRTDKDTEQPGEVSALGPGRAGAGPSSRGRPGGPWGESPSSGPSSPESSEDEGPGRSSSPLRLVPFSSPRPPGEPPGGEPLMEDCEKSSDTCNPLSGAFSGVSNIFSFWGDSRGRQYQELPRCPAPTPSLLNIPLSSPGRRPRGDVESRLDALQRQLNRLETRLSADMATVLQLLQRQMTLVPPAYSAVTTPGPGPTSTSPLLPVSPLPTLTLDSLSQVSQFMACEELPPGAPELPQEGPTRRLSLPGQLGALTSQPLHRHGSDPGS

Compound	hERG current change (%, negative = inhibition) at 1uM [%]
O=C1CCc2cc(NS(=O)(=O)c3ccc(F)cc3)cc3c2N1CC3	-0.223
CC(C)(C)OC(=O)N1CCC[C@H]1C(=O)Nc1ccc(S(=O)(=O)C(F)F)cc1	14.8
Cc1cccc(C(=O)c2cnc3ccccc3c2-c2ccccc2)c1	9.09
CN(CC(=O)Nc1ccc(Cl)c(C(F)(F)F)c1)C(=O)Cn1cc([N+](=O)[O-])ccc1=O	-7.11
CC(=O)Nc1ccc(S(=O)(=O)N(C)CC(=O)OCC(=O)NC(C)C23CC4CC(CC(C4)C2)C3)cc1.CN(C)C=O (stereo not shown)	18.3
Cc1cc(-c2nnc(SCC(=O)N3C(C)CCCC3C)o2)no1 (stereo not shown)	15.6
O=C(CN1C2CCC1CC(NC(=O)Nc1ccccc1)C2)NCc1ccco1 (stereo not shown)	-10.7
COc1cc(S(=O)(=O)n2ccnc2)ccc1Br	5.84
C1=C(c2ccccc2)CCN(c2nc3ccccc3n3cnnc23)C1	11.5
Cc1cccc2cc(CN(Cc3ccco3)C(=O)NC3CCCCC3)c(=O)[nH]c12	-8.16
O=C1NC(=O)N(Cc2cccs2)C(=O)/C1=C/c1ccc(N2CCOCC2)cc1	10.9
O=C(NC1(C(F)(F)F)Oc2ccccc2O1)N1CCC2(CC1)OCCO2	-1.45
CC(C)(C)OC(=O)CNC(=O)c1[nH]cnc1C(=O)NCC(=O)OCc1ccccc1	1.86
O=C(Cn1cc(S(=O)(=O)N2CCN(c3ccccc3F)CC2)c2ccccc2c1=O)NCCCN1CCCCCC1	10.5
CCOc1ccccc1NC(=O)C(NCC1(N2CCCCC2)CCCCC1)c1ccccc1.O=C(O)C(=O)O (stereo not shown)	-57.4
COCCNC(=O)Cn1nc(C)c2ccccc2c1=O	14.9
CCc1ccc([C@@H]2CC=C(C(=O)O)[C@H](c3ccccc3)N2S(=O)(=O)c2ccc(C)cc2)cc1	13
NS(=O)(=O)c1ccc(CCNC(=O)c2ccc(C#CC3(O)CCCCC3)cc2)cc1	11.5
CC(SC1=Nc2ccccc2C2CC=NN12)C(=O)NC1(C#N)CCCCC1 (stereo not shown)	8.3
CN1CCN(c2nc(Nc3ccc(O)cc3)nc3ccccc23)CC1.Cl	-1.34
O=C(Nc1cc(-c2ccccc2)nn1-c1ccccc1)c1ccccc1F	3.96
CCC(C)NC(=O)Cn1cc2c(n1)CCC(C)C2 (stereo not shown)	16.1

Compound	hERG current change (%, negative = inhibition) at 1uM [%]
O=C(NC(=S)Nc1ccc(Cl)cc1)c1ccccc1	16.9
Cc1ccc(S(=O)(=O)N2CCOCC2)cc1C(=O)N(C)CCOc1ccc(Cl)cc1	-18.6
ClC(Cl)(c1nnnn1-c1ccccc1)c1nnnn1-c1ccccc1	5.48
CC(C)OC(=O)CSc1n[nH]c(-c2cccnc2)n1	16.5
COc1ccc(C(=O)NCCS(=O)(=O)N2CCc3ccccc3C2)c(OC)c1	-2.92
O=C(CCN1C(=O)c2ccccc2S1(=O)=O)Nc1ccc(Cl)cc1	18.9
CCOc1ccc(CN2CCN(CCCc3ccccc3)C(CCO)C2)cc1 (stereo not shown)	-75.8
COc1ccc(N2CCN(c3ccc(C(N)=O)cc3[N+](=O)[O-])CC2)cc1	12.4
COC(=O)c1c(=O)n(O)c2ccc(OC)cc2[n+]1[O-]	13
Cc1cc(C)cc(OCCNC(=O)CCc2ccccc2)c1	12.8
COC(=O)c1c(NC(=S)NN2CCN(C)CC2)sc2c1CCC(C)C2 (stereo not shown)	40.3
CC(C)CNC(=O)c1ccc(NC(=O)c2cccs2)cc1	6.6
CC1CCCCC1NC(=O)CSc1nnc(-c2ccncc2)n1CCCN(C)C.O=C(O)C(=O)O (stereo not shown)	12.1
O=C1CSC2(C(=O)N3CCCc4cccc2c43)N1c1cccc(C(F)(F)F)c1 (stereo not shown)	-10.6
CCCn1nc(C(=O)NCCc2ccc(S(N)(=O)=O)cc2)c2ccccc2c1=O	9.63
COc1ccc(NC(=O)NCCCN2CCC(Cc3ccccc3)CC2)cc1	-82.2
Cc1ccc(N(CC(=O)NC(C)C)C(=O)CCC(=O)Nc2ccccn2)cc1	19
Cc1ccc(C(=O)N/C(=C\c2cn(C)c3ccccc23)C(=O)N2CCOCC2)cc1	10.6
Cc1ccc(C(=O)NC2CCN(S(=O)(=O)c3ccc(F)cc3)CC2)cc1	9.73
COc1ccc(C)cc1N(CC(=O)Nc1ccc2c(c1)OCCO2)S(C)(=O)=O	14.1
COCCNC(=O)Cn1nc(-c2ccc(C)cc2)c2ccccc2c1=O	11.3
